# Source: PubChem BioAssay AID1345082 (National Center for Advancing Translational Sciences (NCATS), 2018)
# About 4,000 (4.3%) of roughly 94,000 compounds were called active. This list was built around the results that the source calls inconclusive (neither active nor inactive); the mix of calls is not that of the screen. Calls follow the shape of the dose curve; as a rule, active = well fitted inhibition curve with a large enough effect; inconclusive = small, poorly fitted or top-dose-only effect; inactive = no such curve, though single readings can be large or run the other way. Where the call is inconclusive, the potency comes from a doubtful curve fit.
# Assay: Cytotoxic Profiling in NIH 3T3 Cell Line of Diverse Libraries Using Quantitative High-Throughput Screening; also: nearly all actives have a fitted effect of over 55% in size
# Conditions: NIH 3T3 viability, CellTiter-Glo ATP luminescence, 48-72 h; activity change, negative = cytotoxicity: at 96.7 µM (top of the series) unless noted; series mostly up to 96.7 µM
# Procedure, shortened: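 Cytotoxicity was measured by CellTiter-Glo ATP luminescence after 48 or 72 h compound exposure at 37 °C. Mouse NIH 3T3 fibroblasts were seeded at 400 cells/well and dosed by 23 nL pin transfer.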
# % is scaled to controls: 0 for no effect and ±100 for the full control effect; potency is read from the fitted curve at half-maximal effect; tags tell the direction and shape of the fitted curve.
SMILES,"activity change, negative = cytotoxicity",Potency,outcome
COc1ccc(OC)c(NC(=O)c2cc3n(n2)CC(c2ccc4c(c2)OCO4)OC3)c1 (stereo unspecified),inactive: -19.7%,–,–
CCCS(=O)(=O)N1CCCC1c1nc2ccccc2s1 (stereo unspecified),inactive: -29.3%,–,–
Cc1cc2nc3n(c(=O)c2n1CC(=O)NCc1ccc(Cl)cc1)CCCC3,inactive: -23.7%,–,–
Cc1nnc(-c2cc(-c3ccc(CO)cc3)ccn2)n1Cc1ccccc1,–,"inconclusive: 63.1 µM [inhibitor, partial curve, poor fit]",–
O=C(Nc1ccccc1)C1(CCO)CCN(Cc2ccccc2)C1 (stereo unspecified),inactive: -20.6%,–,–
C[S+](=O)([O-])N1Cc2ccccc2CC2(CCCN(Cc3ccncc3)C2)C1 (stereo unspecified),inactive: -8.04%,–,–
Cc1cccc2c1nc1n2[C@@H](CNCc2nc3ccccc3n2C)COC1,–,active: 100 µM,–
c1ccc(Oc2ccccc2-c2cc3c(cn2)CN(Cc2ccncc2)CCN3)cc1,–,"inconclusive: 56.2 µM [inhibitor, partial curve, poor fit]",–
COc1cccc(CC(=O)N2CCC3(CC2)CN(c2ccccc2)C3=O)c1,–,"inconclusive: 39.8 µM [inhibitor, partial curve, poor fit]",–
Cc1ccc(-c2cc(N3CCCN(C(=O)C(C)Oc4ccccc4)CC3)n[nH]2)cc1C (stereo unspecified),–,"inconclusive: 44.7 µM [inhibitor, partial curve, poor fit]",–
Cc1ccc(S(=O)(=O)N[C@H]2CC(C)(C)[C@@H]3C[C@@](C)(O)CC[C@]23CCC(=O)NCCc2c[nH]c3ccccc23)cc1,–,active: 79.4 µM,–
C=CCNC(=O)CCc1c(CC)nn(-c2ccc(OC)cc2)c1Oc1ccccc1F,–,"inconclusive: 50.1 µM [inhibitor, partial curve, poor fit]",–
O=C(Nc1ccccc1)N1CCCC(C(=O)N2CCC(N3CCOCC3=O)CC2)C1 (stereo unspecified),inactive: -14.9%,–,–
Cc1nn(-c2ccccc2)c2c1C(C)N(C1CCCN(C(=O)c3ccc(F)cc3)C1)C2=O (stereo unspecified),–,"inconclusive: 50.1 µM [inhibitor, partial curve, poor fit]",–
CN(C)[C@H]1CCCCN(C(=O)CCc2ccc(-c3ccc(Cl)cc3)[nH]2)C1,–,"inconclusive: 56.2 µM [inhibitor, partial curve, poor fit]",–
COc1ccc(CN2CCC(O)(c3csc(CN4CCN(C)CC4)n3)CC2)cc1,–,active: 89.1 µM,–
CC(NC(=O)CN1C(=O)COc2ccc(C(=O)COc3cccc(F)c3)cc21)c1ccccc1 (stereo unspecified),–,"inconclusive: 70.8 µM [inhibitor, single point]",–
Cc1cc(CN2CCC(Cc3ccc(F)cc3)CC2)n(C)n1,–,"inconclusive: 14.1 µM [inhibitor, full curve]",–
COc1cccc(S(=O)(=O)N2CCC3(CC2)CC2C(=O)NCCN2C3)c1 (stereo unspecified),inactive: -20.6%,–,–
Cc1cn2nc(C(=O)NCc3ccccc3Cl)cc2c(N2CCCC2)n1,–,"inconclusive: 70.8 µM [inhibitor, single point]",–
Oc1ccccc1CN1CCC[C@H]1c1nc(-c2ccc(N3CCOCC3)nc2)no1,–,"inconclusive: 112 µM [inhibitor, partial curve, poor fit]",–
COc1ccccc1-c1ccc(C(=O)N2CCC(NC(=O)Nc3ccccc3)CC2)cc1,–,"inconclusive: 50.1 µM [inhibitor, partial curve, poor fit]",–

SMILES,"activity change, negative = cytotoxicity",Potency,outcome
COCCn1c(CN(C)Cc2sccc2C)cnc1S(=O)(=O)CC1CCCCC1,–,"inconclusive: 44.7 µM [inhibitor, partial curve, poor fit]",–
Cc1cc(C(=O)N2CCC(CC(=O)N(C)Cc3ccccc3)C2)n(C)n1 (stereo unspecified),inactive: -7.84%,–,–
COc1ccnc(-c2nnc3ccc(N(C)c4ccccc4)nn23)c1,–,active: 20 µM,–
O=C(Nc1ccc(F)cc1)[C@@H]1C[C@@H](c2ccc(F)cc2)N([S+](=O)([O-])c2ccccc2)C1,–,"inconclusive: 28.2 µM [inhibitor, full curve]",–
COCC(=O)N1CCCC(C(=O)NCc2ccc(F)cc2Cl)C1 (stereo unspecified),inactive: -2.29%,–,–
COc1cc(=O)n2c(c1C(=O)Nc1ccc(Cl)cc1Cl)CCCC2,inactive: -22.7%,–,–
O=C(C1CC1)N1CCN(c2ccc3nnc(C4CC4)n3n2)CC1,–,"inconclusive: 39.8 µM [inhibitor, partial curve]",–
CC(C)c1cc(NCc2cccnc2-n2cncn2)n2nccc2n1,–,–,inactive
Cc1cccc(OCCc2noc(C3CCN(S(=O)(=O)C(C)C)C3)n2)c1 (stereo unspecified),–,"inconclusive: 35.5 µM [inhibitor, partial curve, poor fit]",–
Cc1cccc(C(=O)N2CCC[C@H]2c2nc(-c3ccccc3Cl)no2)c1,–,"inconclusive: 70.8 µM [inhibitor, single point]",–
O=C1c2cnc(-c3ccsc3)nc2OCCN1c1ccccc1,–,"inconclusive: 79.4 µM [inhibitor, partial curve]",–
COc1ccc(C(=O)N[C@H]2CO[C@H]3[C@@H]2OC[C@@H]3n2cc(CC3CCCCC3)nn2)cc1,–,"inconclusive: 39.8 µM [inhibitor, partial curve, poor fit]",–
Cn1ncc2c(C(=O)NCc3cccs3)cc(-c3ccccc3)nc21,–,"inconclusive: 44.7 µM [inhibitor, partial curve, poor fit]",–
COc1ccc(-c2cc(C[C@H]3CNCC[C@H]3CC(=O)Nc3ccccc3)no2)cc1,–,active: 39.8 µM,–
Cc1nn2c(c1-c1ccccc1OCc1ccccc1)N(C(=O)COc1ccccc1C(N)=O)CCC2,–,active: 6.31 µM,–
CN(C)c1ncc2c(n1)C(C)(C(=O)Nc1cccc(F)c1)CCC2 (stereo unspecified),–,"inconclusive: 56.2 µM [inhibitor, partial curve, poor fit]",–
CCOC1CCOC2(CCN(C(=O)c3cccn3C)CC2)C1 (stereo unspecified),inactive: 2.37%,–,–
CN1C(=O)C2(CCN(Cc3cccc4ccccc34)C2)c2ccccc21 (stereo unspecified),–,"inconclusive: 56.2 µM [inhibitor, partial curve, poor fit]",–
CC(=O)N1CCN(C(=O)[C@@]23CCCC[C@H]2N(CCC(C)C)C(=O)CC3)CC1,inactive: -9.47%,–,–
Cc1cccc(OC[C@H]2C[C@@H](NCc3cccc4c3OCO4)[C@H](O)[C@@H]2O)n1,inactive: -20.7%,–,–
COc1ccccc1Nc1ncc2c(n1)CN(C(=O)c1cc3ccccc3n1C)CCN2,–,"inconclusive: 89.1 µM [inhibitor, partial curve, poor fit]",–
CCNc1cc(N2CCC(CCC(=O)O)CC2)ncn1,inactive: -8.05%,–,–

SMILES,"activity change, negative = cytotoxicity",Potency,outcome
Cc1ccc(C(=O)NC2CCN(C(=O)c3ccc(-c4cccs4)cc3)CC2)cc1,inactive: -36.7%,–,–
CC(C)c1noc(CC2CCN(C(=O)c3cc4ccccc4[nH]3)CC2)n1,–,"inconclusive: 39.8 µM [inhibitor, partial curve, poor fit]",–
Cc1cc(C(=O)N2CCC(=O)N(Cc3ccc(F)cc3)C(C(C)C)C2)n[nH]1 (stereo unspecified),inactive: -19.6%,–,–
Cc1cc(C2CC(C(=O)NCc3ccc4c(c3)OCO4)CN(C(=O)c3ccccc3)C2)ccc1F (stereo unspecified),–,"inconclusive: 44.7 µM [inhibitor, partial curve, poor fit]",–
COc1ccccc1-c1[nH]nc2ncc(C(=O)N(C)c3ccccc3)nc12,–,"inconclusive: 56.2 µM [inhibitor, partial curve, poor fit]",–
Clc1ccccc1-c1cc(C2CCN(Cc3cc4n(n3)CCNC4)CC2)[nH]n1,–,"inconclusive: 89.1 µM [inhibitor, single point]",–
Cc1ccc(C(=O)NC2CCN(Cc3cccc(-c4cccc(C)c4)c3)CC2)cc1,–,active: 31.6 µM,–
O=C(NC1CCCN(c2ccc3nnc(C4CC4)n3n2)C1)c1ccccc1F (stereo unspecified),–,"inconclusive: 79.4 µM [inhibitor, single point]",–
CCCNC(=O)CC(c1ccccc1OC)c1c[nH]c2c(CC)cccc12 (stereo unspecified),–,"inconclusive: 56.2 µM [inhibitor, partial curve, poor fit]",–
O=C(C1CCCN1C(=O)c1cccc(-c2cccnc2)c1)N1CCC(c2ccccc2)CC1 (stereo unspecified),–,"inconclusive: 44.7 µM [inhibitor, partial curve, poor fit]",–
COc1ccc(NC(=O)c2cnc3c(c2)N(C(=O)Cc2cccc(C(F)(F)F)c2)CCC3)cc1OC,–,"inconclusive: 70.8 µM [inhibitor, single point]",–
COc1ccccc1C(=O)N1CCC(C(NC(=O)c2ccccc2C)C(=O)N2CCCC2)CC1 (stereo unspecified),–,"inconclusive: 56.2 µM [inhibitor, partial curve, poor fit]",–
COc1ccc(-c2cn(C)c(=O)n3cc(COc4ccnn4C)nc23)cc1OC,–,"inconclusive: 56.2 µM [inhibitor, partial curve, poor fit]",–
COc1cc2c(cc1CNC(=O)Cn1nc(C)n(Cc3ccccc3)c1=O)CCC2,–,"inconclusive: 39.8 µM [inhibitor, partial curve]",–
CNC(=O)c1cc(C2CC2)nc2c1c(C1CCN(C(=O)c3ccc4c(c3)OCO4)CC1)nn2C,–,"inconclusive: 56.2 µM [inhibitor, partial curve, poor fit]",–
O=C(NC1CC1)c1ccccc1OCC1CCCN(Cc2cccc3[nH]ccc23)C1 (stereo unspecified),inactive: -23.6%,–,–
O=C(O)Cn1nc(C2CC2)nc1CCc1nc2ccccc2s1,inactive: 0.445%,–,–
COCCN1C(=O)CO[C@H]2CN(CCCc3ccccc3)C[C@H]21,–,"inconclusive: 31.6 µM [inhibitor, partial curve, poor fit]",–
O=C(CNC(=O)c1ccc(-c2cnc3ccccc3c2)cc1)NCc1ccccc1,–,"inconclusive: 7.08 µM [inhibitor, full curve, poor fit]",–
Cc1ccc(C2Cn3nnc(C(=O)N4CCC(C(=O)NCc5ccc(F)cc5)CC4)c3CO2)cc1 (stereo unspecified),inactive: -4.77%,–,–
O=C1N(C2CCNCC2)C(c2ccccc2)C12CCCC2 (stereo unspecified),inactive: -0.0537%,–,–
COCCOCc1nc(C2CCCCN2S(=O)(=O)Cc2ccccc2)no1 (stereo unspecified),inactive: -20.8%,–,–
